Data as given in the supplement of paper PMC10502849.
Where “and” joins values, the source holds several entries; their conditions need not be identical. Equal entries are not always repeated. Structures can show the parent of a compound that is named as a salt. The list shows a part of the results. Most values come without repeats; read them as rough.

How the values were obtained:
[1] = tested on: H9 teratoma-derived LAM model cells, TSC2-/-; experiment: percent SyTOX+ dead cells; higher = more cytotoxic; details: 5 µM, treatment time 72 h, culture: 3D hyaluronic acid hydrogel
[2] = tested on: H9 teratoma-derived LAM model cells, WT; experiment: percent SyTOX+ dead cells; higher = more cytotoxic; details: 5 µM, treatment time 72 h, culture: 3D hyaluronic acid hydrogel, genotype: WT
[3] = tested on: H9 teratoma-derived LAM model cells, TSC2-/-; experiment: percent of cells invaded past median invasion distance of vehicle control; LAM is lymphangioleiomyomatosis; the cells come from teratomas of the human stem cell line H9; higher = more invasion; extreme values may be limits of the assay; details: 5 µM, treatment time 72 h, culture: 3D hyaluronic acid hydrogel
[4] = tested on: H9 teratoma-derived LAM model cells, WT; experiment: as above; details: 5 µM, treatment time 72 h, culture: 3D hyaluronic acid hydrogel, genotype: WT
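Throughout, for percent SyTOX+ dead cells: cells seeded atop a hyaluronic acid gel crosslinked via MMP-cleavable peptides, containing vitronectin peptides and methylcellulose, imaged live by high-content microscopy with automated analysis, one technical replicate per compound.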
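Throughout, for percent of cells invaded past median invasion distance of vehicle control: live cells imaged by high content microscopy and scored with in-house automated image analysis, one technical replicate per compound in each genotype and rapamycin condition.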

Row | Structure (SMILES) | percent SyTOX+ dead cells ([1]; rapamycin 0 nM) | percent SyTOX+ dead cells ([1]; rapamycin 20 nM) | percent SyTOX+ dead cells ([2]; rapamycin 0 nM) | percent SyTOX+ dead cells ([2]; rapamycin 20 nM) | percent ([3]; rapamycin 20 nM) | percent ([4]; rapamycin 0 nM) | percent ([3]; rapamycin 0 nM) | percent ([4]; rapamycin 20 nM)
1 | OCCn1cc(-c2cnc3nnn(Cc4ccc5ncccc5c4)c3n2)cn1 | 7.25% and 12.7% | 17.1% and 8.33% | 11.4% and 12.8% | 3.22% and 17.7% | 27.3% and 37.5% | 35.6% and 23.9% | – | –
2 | CN1C(=O)C(Cc2c[nH]c3ccccc23)NC1=S (stereo not given) [Necrostatin-1] | 16.8% | 22.4% | 28.7% | 20.3% | 6.03% | 0.93% | 47.4% | 2.9%
3 | C[C@@H](N)[C@H]1CC[C@H](C(=O)Nc2ccncc2)CC1 | 6.98% and 1.77% | 16.3% and 0.59% | 12.9% and 11.7% | 16.3% and 5.04% | – | – | – | 6.8% and 19.6%
4 | Cc1ccccc1-n1c(Cn2nc(-c3cccc(O)c3)c3c(N)ncnc32)nc2cccc(C)c2c1=O | 18.5% and 6.25% | 15.3% and 5.16% | 16.9% and 14% | 17.3% and 13% | – | – | 21.2% and 41.9% | 25.5% and 15.3%
5 | NC(=O)Nc1cc(-c2cccc(F)c2)sc1C(=O)N[C@H]1CCCNC1 [AZD 7762, AZD-7762 hydrochloride] | 33.6% and 28.8% | 33.1% and 32.9% | – | 55.7% and 63.6% | 0.81% and 18.1% | 0% and 2.56% | 2.05% and 1.84% | 0%
6 | CC(C)n1cnc2c(Nc3cccc(Cl)c3)nc(NCCO)nc21 [Compound 52, NG-52] | 22.6% | 19.3% | 23.4% | 29% | 21.1% | 1.61% | 50.6% | 4.84%
7 | CO[C@H]1C[C@@H]2CC[C@@H](C)[C@@](O)(O2)C(=O)C(=O)N2CCCC[C@H]2C(=O)O[C@H]([C@H](C)C[C@@H]2CC[C@@H](OC(=O)C(C)(CO)CO)[C@H](OC)C2)CC(=O)[C@H](C)/C=C(\C)[C@@H](O)[C@@H](OC)C(=O)[C@H](C)C[C@H](C)/C=C/C=C/C=C/1C [Temsirolimus, CCI-779, Torisel] | 14.4% | 12.4% | 12.1% | 15.1% | 37.1% | 3.45% | 22.6% | 30.1%
8 | COc1cc(CCc2cc(NC(=O)c3ccc(N4CC(C)NC(C)C4)cc3)n[nH]2)cc(OC)c1 (stereo not given) | 58.3% | 52.7% | 83% | 81.8% | 0.41% | 0% | 0% | 0%
9 | Cc1ccc(C(=O)Cn2c3c(sc2=N)CCCC3)cc1 [Pifithrin-alpha] | 13.5% | 3.66% | 12.7% | 9.39% | 47.6% | 51.4% | 92.4% | 25.8%
10 | Cc1cc(CN2CCN(c3c(Br)cnc4nc(-c5ccc(N6CCN(C)CC6)cc5)[nH]c34)CC2)no1 | 41.2% | 37.5% | 44.8% | 45.6% | 10.5% | 1.58% | 21.5% | 0.73%
11 | O=c1ncccn1[C@@H]1O[C@H](CO)[C@@H](O)[C@H]1O | 14.8% | 8.52% | 13.4% | 16.7% | 34.1% | 38.3% | 64.1% | 49.1%
12 | N#CCNC(=O)c1ccc(-c2ccnc(Nc3ccc(N4CCOCC4)cc3)n2)cc1 | 29.4% | 37.1% | 55.6% | 67.1% | 7.26% | 2.82% | 1.37% | 0%
13 | CN(C1CCc2c(c3ccccc3n2CC(=O)O)C1)S(=O)(=O)c1ccc(F)cc1 (stereo not given) | 5.67% | 10.4% | 7.91% | 11.9% | 35.3% | 18.6% | 39.2% | 23.4%
14 | Cc1ccc([N+](=O)[O-])cc1S(=O)(=O)N(C)/N=C/c1cnc2ccc(Br)cn12 [PIK-75 hydrochloride] | 31.2% | 34% | 20.6% | 28.9% | 0% | 0% | 0% | 0%
15 | Nc1ncnc2n[nH]c(Nc3ccc(F)cc3)c12 | 16.7% and 8.41% | 14.7% and 19.4% | 30.3% and 19.4% | 23.5% and 14.3% | 13.7% and 38.1% | 3.52% and 6.45% | – | 4.41% and 8.57%
16 | C[C@@H](Oc1cc(-n2cnc3ccc(CN4CCN(C)CC4)cc32)sc1C(N)=O)c1ccccc1C(F)(F)F | 31.8% | 16.6% | 30.6% | 17.8% | 29.5% | 30% | 29.8% | 23.9%
17 | NC(=O)c1ccc(N(C(N)=O)c2c(F)cccc2F)nc1-c1ccc(F)cc1F | 10.3% | 12.1% | 28.2% | 16.2% | 74.6% | 23% | 34.5% | 27.8%
18 | COc1cc2ncnc(Nc3ccc(O)cc3)c2cc1OC [Janex-1, WHI-P131] | 17.6% | 13.1% | 15.3% | 13.1% | 8.74% | 9.05% | 19.2% | 25.3%
19 | O=Nc1c(-c2c(O)[nH]c3cc(Br)ccc23)[nH]c2ccccc12 [6-bromoindirubin-3'-oxime, BIO] | 72.1% | 83.8% | 86% | 93.8% | 2.6% | 0% | 0% | 0%
20 | CC[C@@H]1C(=O)N(C)c2cnc(Nc3ccc(C(=O)NC4CCN(C)CC4)cc3OC)nc2N1C1CCCC1 | 9.25% | 7.99% | 16.9% | 7.17% | 71.6% | 52.8% | 48.7% | 49.5%
21 | Cc1nc(NC(=O)N2CCC[C@H]2C(N)=O)sc1-c1ccnc(C(C)(C)C(F)(F)F)c1 | 8.59% | 12.7% | 25.6% | 26.8% | 20.4% | 60.6% | 43% | 55.3%
22 | S=C(S)N1CCCC1 [Pyrrolidinedithiocarbamate ammonium] | 75.2% | 85.9% | 72.2% | 75% | 7.41% | 14.7% | 15.7% | 13.2%
23 | O=c1cc(N2CCOCC2)oc2c(-c3ccccc3)cccc12 | 12.6% | 11% | 19.2% | 20.2% | 17.6% | 22.6% | 42% | 20.2%
24 | Nc1nc(N)c2nc(-c3cccc(O)c3)c(-c3cccc(O)c3)nc2n1 | 6.11% | 5.49% | 6.96% | 9.15% | 50% | 88.1% | 91.7% | 31.4%
25 | O=C1NC(=O)/C(=C/c2ccc3c(c2)OC(F)(F)O3)S1 | 12.4% | 11% | 24.5% | 22% | 40.4% | 31.3% | 15.8% | 20.8%
26 | CC(C)(C)n1nc(-c2cccc3ccccc23)c2c(N)ncnc21 [1-Naphthyl PP1, 1-NA-PP 1] | 30.6% | 26.9% | 31.3% | 38.2% | 4.96% | 0.51% | 2.78% | 1.96%
27 | Cc1cc(NC(=O)Nc2ccc(N(C)C)cc2)c2cc(F)cc(F)c2n1 | 12.5% | 10.4% | 7.88% | 5.05% | 20.3% | 35.2% | 33.5% | 53%
28 | O=C1CCc2c(ccc3ccccc23)O1 [Splitomicin] | 7.34% | 11.8% | 16.1% | 13.3% | 53.5% | 54.4% | 66.4% | 49.7%
